PubChem BioAssay AID624296 (National Center for Advancing Translational Sciences (NCATS), 2012)
Among all 350,000 compounds or so, about 9,900 (2.8%) were called active. This list was built around the results that the source calls inconclusive (neither active nor inactive); the mix of calls is not that of the screen. The call rests on the fitted dose curve; in most records, active means well fitted activation curve with a large enough effect; inconclusive means small, poorly fitted or top-dose-only effect; inactive means no such curve, though single readings can be large or run the other way. No potency is given beside an inconclusive call; the fits are too rough.

assay: A quantitative high throughput screen for small molecules that induce DNA re-replication in MCF 10a normal breast cells.; further: nearly all actives have a fitted effect of over 50% in size; on activity, positive = re-replication: % of control where 0% means no effect; details: MCF 10A DNA re-replication, Hoechst nuclear intensity, 48 h; activity, positive = re-replication: at 46.1 µM (top of the series)
Potency means the concentration at half of the fitted maximal effect; tags describe the fitted curve by direction and shape.

| SMILES | Potency | activity, positive = re-replication |
| --- | --- | --- |
| CN1CCN(/N=C/c2ccc(N(c3ccccc3)c3ccccc3)cc2)CC1 | active: 16.4 µM |  |
| COc1ccc(CNC2CCCCC2C)c(OC)c1 (stereo unspecified) | inconclusive [activator, single point] |  |
| O=C(CCN1CCOCC1)c1ccc(N2CCCCC2)cc1 | inconclusive [activator, full curve] |  |
| NC(=O)N/N=C/c1sc(N2CCCCC2)nc1-c1cccs1 | active: 23.1 µM |  |
| CC(=O)N(c1ccccc1)C1CC(C)N(C(=O)c2ccccc2)c2ccccc21 (stereo unspecified) | inconclusive [activator, full curve, poor fit] |  |
| CCOC(=O)c1nc(NCc2cccc(OC)c2)c2ccccc2n1 |  | inactive: 3.69% |
| Cc1c(NC(=O)C(C)OC(=O)c2cc(-c3cccc4ccccc34)nc3ccccc23)c(=O)n(-c2ccccc2)n1C (stereo unspecified) | inconclusive [activator, single point] |  |
| Cc1ccc(SCC(=O)Nc2ccc(C(=O)Nc3ccc(O)cc3)cc2)cc1 |  | inactive: -0.529% |
| CCOCCCn1c(=NC(=O)c2cccs2)c(C#N)cc2c(=O)n3cccc(C)c3nc21 | active: 9.2 µM |  |
| CC(C)N1CC(O)=C(c2nc3ccccc3c(=O)[nH]2)C1=N |  | inactive: 1.66% |
| OCC1CCCC(n2cnc3c(=S)nc[nH]c32)O1 (stereo unspecified) | inconclusive [activator, partial curve, poor fit] |  |
| COc1ccc(-c2ccc3c(c2)S(=O)(=O)c2cccc(C(=O)NCCOc4ccccc4)c2C3=O)cc1OC | inconclusive [activator, full curve, poor fit] |  |
| Cc1ccc(-c2csc(NC(=O)C3=COCCO3)n2)cc1C | inconclusive [activator, partial curve, poor fit] |  |
| CCOC(=O)c1[nH]c(CN2CCN(c3ccc(OC)cc3)CC2)c(C(=O)OCC)c1C | inconclusive [activator, single point] |  |
| CCOc1cc(/C=N/NC(=O)c2ccncc2)ccc1OS(C)(=O)=O |  | inactive: -6.79% |
| CCN(CC(=O)NCc1ccc(F)cc1)S(=O)(=O)c1ccc(Cl)s1 |  | inactive: -1.33% |
| O=C(CSc1ncnc2ccccc12)Nc1ccc2c(c1)OCO2 | inconclusive [activator, partial curve, poor fit] |  |
| CC(C)(C)c1ccc(Oc2ccc(NC(=O)C3CC=CCC3C(=O)O)cc2)cc1 (stereo unspecified) | inconclusive [activator, single point] |  |
| CCCCC[C@@H]1C=C(C(=O)O)[C@H](c2ccc(Br)cc2)N1S(=O)(=O)c1ccc(C)cc1 | inconclusive [activator, single point] |  |
| C=C(C)COc1ccc(-c2nc(N)nc(C)c2-c2ccc(OC)cc2)c(O)c1 | inconclusive [activator, partial curve, poor fit] |  |
| C=CCn1c(N2CCCCCC2)nc2c1c(=O)n(C)c(=O)n2C |  | inactive: 0.196% |
| CCN(CC)S(=O)(=O)c1cccc(C(=O)NCC2CCCCC2)c1 |  | inactive: 6.83% |
| Fc1ccc(Br)cc1C1C=C(c2cccnc2)Nc2ncnn21 (stereo unspecified) | inconclusive [activator, partial curve, poor fit] |  |
| COc1ccc(NS(=O)(=O)c2ccc3c(c2)N(C(C)=O)CCO3)cc1 | inconclusive [activator, single point] |  |

| SMILES | Potency | activity, positive = re-replication |
| --- | --- | --- |
| CCc1ccc(NC(=O)CCn2c(=O)c3cccn3c3ccccc32)cc1 | inconclusive [activator, single point] |  |
| O=C(CNC(=O)c1cccc(F)c1)N/N=C/c1cccnc1 | inconclusive [activator, full curve, poor fit] |  |
| O=C(c1ccc(F)cc1)N1CCN(C2CCC(c3ccccc3)CC2)CC1 (stereo unspecified) | inconclusive [activator, single point] |  |
| CCN(CCO)Cc1csc2ccc(Br)cc12 | inconclusive [activator, full curve, poor fit] |  |
| O=C(O)CN(c1ccc(F)cc1)S(=O)(=O)c1ccc2c(c1)OCCO2 | inconclusive [activator, partial curve, poor fit] |  |
| CCN(CC)P(=O)(Nc1ccc(C)cc1Br)c1ccc(N(C)C)cc1NC(=O)c1ccco1 (stereo unspecified) | inconclusive [activator, single point] |  |
| O=C(CSc1nc2c(sc3ccccc32)c(=O)n1CCCN1CCCC1)NCc1ccccc1 | inconclusive [activator, single point] |  |
| COc1ccc(Br)cc1/C=N/NC(=O)CNC(=O)/C=C/c1ccccc1 | inconclusive [activator, single point] |  |
| O=[N+]([O-])c1ccc2nc(NS(=O)(=O)c3ccccc3[N+](=O)[O-])sc2c1 | inconclusive [activator, partial curve, poor fit] |  |
| Cc1nc2ccc(NS(=O)(=O)c3ccc(F)c(F)c3F)cc2s1 |  | inactive: 3.69% |
| COc1cc(-c2nc3ccc4ccccc4c3c3c2CCC3)ccc1O | inconclusive [activator, single point] |  |
| CC1=CC(C)(C)Nc2ccc(Cc3ccc4c(c3)C(C)=CC(C)(C)N4)cc21 | active: 29.1 µM |  |
| Cc1ccc(NC(=O)COC(=O)C(NS(=O)(=O)c2ccc(Cl)cc2)C(C)O)cc1C (stereo unspecified) |  | inactive: 3.68% |
| CC(=O)Nc1ccc(NC(=O)c2ccc(-c3ccccc3Cl)o2)cc1 | inconclusive [activator, single point] |  |
| COc1ccc(OC)c(-c2nnc3n2N=C(c2ccc(OC)c(OC4CCCC4)c2)CS3)c1 | inconclusive [activator, partial curve, poor fit] |  |
| O=C(CN1C(=O)C2CC=CCC2C1=O)Nc1nc(-c2ccc(F)cc2)cs1 (stereo unspecified) |  | inactive: 4.81% |
| CCN1CCN(Cc2ccc(NC(=O)c3cc(NC(=O)c4cc(-c5ccc(OC)cc5)n[nH]4)cc(OC)c3)cc2C(F)(F)F)CC1 |  | inactive: 8.88% |
| CCCn1c(C(C)Nc2nc(-c3cccc(Br)c3)cs2)nc2ccccc21 (stereo unspecified) |  | inactive: 16.2% |
| Cc1ccc(-c2cc(-c3ccccc3)nc(N/N=C/c3cccnc3)n2)cc1 | active: 9.2 µM |  |
| NC(=O)c1c(NC(=O)c2cccnc2)sc2c1CCCCC2 | inconclusive [activator, partial curve, poor fit] |  |
| C[C@H](CO)N1C[C@H](C)[C@@H](CN(C)Cc2ccc(C(=O)O)cc2)Oc2c(NC(=O)C3CC3)cccc2C1=O | inconclusive [activator, single point] |  |
| COc1ccc2c(c1)OC(O)(C(F)F)CC2=O (stereo unspecified) |  | inactive: -2.6% |
| O=C(Nc1ccccc1)C(=O)Nc1ccc2c(c1)N(C(=O)C1CC1)CCC2 | inconclusive [activator, single point] |  |
| Cc1ccc(/C=C2\SC(=S)N(C3CCS(=O)(=O)C3)C2=O)o1 (stereo unspecified) |  | inactive: 0.8% |

| SMILES | Potency | activity, positive = re-replication |
| --- | --- | --- |
| O=C(c1cnn(-c2cccc(F)c2)c1)c1ccccc1O | inconclusive [activator, partial curve, poor fit] |  |
| COc1cccc(/C=C2\SC(=S)N(CCC(=O)N3CCCCC3CCO)C2=O)c1 (stereo unspecified) | active: 23.1 µM |  |
| CC(C)CNC(=O)c1ccccc1C(=O)NC1(C(=O)NCC(C)C)CCCC1 |  | inactive: -0.964% |
| CCCn1c(=N)n(CC(=O)c2cccs2)c2ccccc21 | inconclusive [activator, single point] |  |
| Cc1cccc(CC(=O)NCC2CCCCC2)c1 |  | inactive: 0.244% |
| COc1ccc(NC(=O)c2cccc(-n3c(C)ccc3C)c2)c(OC)c1 | inconclusive [activator, single point] |  |
| S=c1nc(C2CCCCC2)[nH][nH]1 |  | inactive: 10.3% |
| Cc1ccc(S(=O)(=O)c2nc(S(=O)(=O)c3ccc(C)cc3)c(N3CCN(CCO)CC3)s2)cc1 | inconclusive [activator, single point] |  |
| CC(=O)c1ccc(NC(=S)NC(=O)/C=C/c2ccc(F)cc2)cc1 |  | inactive: -13.6% |
| COc1ccc(S(=O)(=O)Nc2ccc(Cc3ccncc3)cc2)cc1C | inconclusive [activator, partial curve, poor fit] |  |
| NS(=O)(=O)c1ccc(NC(=O)c2ccc3c(c2)CCCC3)cc1 |  | inactive: 0.456% |
| Clc1ccccc1CN1CCC(Cc2ccccc2)CC1 | inconclusive [activator, single point] |  |
| Fc1ccc(CNC(=S)NCc2cccc(Cl)c2)cc1 | inconclusive [activator, single point] |  |
| S=C(Nc1ccccc1)N1CCn2c1nc1ccccc12 |  | inactive: -9.57% |
| O=C1CC(c2ccccc2)CC(O)=C1C=Nc1ccc(Cl)cc1 (stereo unspecified) | inconclusive [activator, single point] |  |
| O=C(NCCc1ccccc1)c1cccc(S(=O)(=O)N2CCCCC2)c1 | inconclusive [activator, single point] |  |
| Brc1ccc(OCc2nnnn2-c2ccccc2)cc1 | inconclusive [activator, partial curve, poor fit] |  |
| COc1ccccc1NC(=O)c1ccc[n+]([O-])c1 | inconclusive [activator, single point] |  |
| NC(=O)C(=O)N/N=C/c1c2ccccc2cc2ccccc12 | active: 23.1 µM |  |
| CCOc1cc(/C=N/Nc2nc(Nc3ccccc3)nc(N3CCCCC3)n2)ccc1OCC(=O)O |  | inactive: 17.4% |
| COc1ccc(-c2nc3cnccn3c2NCc2ccccc2)cc1SC1CCCCC1 | active: 11.6 µM |  |
| O=C1NC(=Nc2ccccc2)SC1Cc1ccccc1 (stereo unspecified) |  | inactive: -4.99% |
| COc1ccc(SCC(=O)c2cc(C)c(OC(=S)N(C)C)c(C)c2)cc1 | inconclusive [activator, partial curve, poor fit] |  |
